Measurements taken from publication PMC4705382.
Results are given in words; binding and its absence hold for the method and conditions named. In cells and extracts the contact can be indirect. Some results given as binding are weak or reduced against the parent protein; the word gives no strength. Tags and fused reporters may be left off the sequences shown.

How the values were obtained:
Experiment in all cases: co-IP; rabbit anti-Myc beads (Sigma) on lysates of co-transfected COS7 cells; lysis buffer 50 mM HEPES pH 7.5, 0.5% Triton X-100, 150 mM NaCl, 1 mM EDTA; Western blot
^mycMitofusin1 = biological target: T1, ^mycMitofusin1 (UniProt Q811U4)
T1 sequence: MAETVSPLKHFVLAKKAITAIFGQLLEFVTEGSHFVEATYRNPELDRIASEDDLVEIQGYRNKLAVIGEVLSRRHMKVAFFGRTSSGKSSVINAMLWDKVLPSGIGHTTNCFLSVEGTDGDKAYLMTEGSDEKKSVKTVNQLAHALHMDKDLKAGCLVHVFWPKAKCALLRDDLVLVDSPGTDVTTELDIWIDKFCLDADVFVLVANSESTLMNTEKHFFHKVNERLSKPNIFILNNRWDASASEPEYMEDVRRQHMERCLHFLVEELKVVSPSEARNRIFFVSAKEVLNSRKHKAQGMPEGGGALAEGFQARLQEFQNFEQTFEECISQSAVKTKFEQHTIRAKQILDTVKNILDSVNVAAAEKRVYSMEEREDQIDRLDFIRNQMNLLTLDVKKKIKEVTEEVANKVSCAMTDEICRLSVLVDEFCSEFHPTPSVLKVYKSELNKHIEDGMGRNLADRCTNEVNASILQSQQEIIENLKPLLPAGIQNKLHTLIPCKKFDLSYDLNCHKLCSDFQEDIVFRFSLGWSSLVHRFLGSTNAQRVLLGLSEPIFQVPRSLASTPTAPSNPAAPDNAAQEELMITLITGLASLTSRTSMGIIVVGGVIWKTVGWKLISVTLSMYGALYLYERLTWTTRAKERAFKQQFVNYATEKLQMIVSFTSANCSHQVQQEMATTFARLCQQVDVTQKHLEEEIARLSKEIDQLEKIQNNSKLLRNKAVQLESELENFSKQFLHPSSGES

^mycTRAK2-(1–700) = biological target: T2, ^mycTRAK2-(1–700) (UniProt Q8R2H7)
T2 sequence: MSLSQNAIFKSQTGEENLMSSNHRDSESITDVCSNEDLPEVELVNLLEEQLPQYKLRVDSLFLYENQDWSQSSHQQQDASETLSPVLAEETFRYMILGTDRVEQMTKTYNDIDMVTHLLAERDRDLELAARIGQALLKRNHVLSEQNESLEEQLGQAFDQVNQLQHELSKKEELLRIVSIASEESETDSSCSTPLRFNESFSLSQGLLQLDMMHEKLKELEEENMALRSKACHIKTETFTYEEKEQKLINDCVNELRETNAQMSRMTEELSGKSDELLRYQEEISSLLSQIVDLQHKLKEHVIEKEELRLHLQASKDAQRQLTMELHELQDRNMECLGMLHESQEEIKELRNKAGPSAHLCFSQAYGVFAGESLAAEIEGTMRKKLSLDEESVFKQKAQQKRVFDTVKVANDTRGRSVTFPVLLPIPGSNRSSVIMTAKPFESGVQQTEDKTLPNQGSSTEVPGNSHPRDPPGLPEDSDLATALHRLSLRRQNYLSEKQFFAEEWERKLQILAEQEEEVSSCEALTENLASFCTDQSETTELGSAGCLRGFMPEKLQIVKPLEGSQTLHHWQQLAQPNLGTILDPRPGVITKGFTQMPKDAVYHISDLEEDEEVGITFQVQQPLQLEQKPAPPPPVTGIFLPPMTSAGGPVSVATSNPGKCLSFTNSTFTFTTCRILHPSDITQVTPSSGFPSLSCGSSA

full-length ^mycTRAK2 = biological target: T3, full-length ^mycTRAK2 (UniProt Q8R2H7)
T3 sequence: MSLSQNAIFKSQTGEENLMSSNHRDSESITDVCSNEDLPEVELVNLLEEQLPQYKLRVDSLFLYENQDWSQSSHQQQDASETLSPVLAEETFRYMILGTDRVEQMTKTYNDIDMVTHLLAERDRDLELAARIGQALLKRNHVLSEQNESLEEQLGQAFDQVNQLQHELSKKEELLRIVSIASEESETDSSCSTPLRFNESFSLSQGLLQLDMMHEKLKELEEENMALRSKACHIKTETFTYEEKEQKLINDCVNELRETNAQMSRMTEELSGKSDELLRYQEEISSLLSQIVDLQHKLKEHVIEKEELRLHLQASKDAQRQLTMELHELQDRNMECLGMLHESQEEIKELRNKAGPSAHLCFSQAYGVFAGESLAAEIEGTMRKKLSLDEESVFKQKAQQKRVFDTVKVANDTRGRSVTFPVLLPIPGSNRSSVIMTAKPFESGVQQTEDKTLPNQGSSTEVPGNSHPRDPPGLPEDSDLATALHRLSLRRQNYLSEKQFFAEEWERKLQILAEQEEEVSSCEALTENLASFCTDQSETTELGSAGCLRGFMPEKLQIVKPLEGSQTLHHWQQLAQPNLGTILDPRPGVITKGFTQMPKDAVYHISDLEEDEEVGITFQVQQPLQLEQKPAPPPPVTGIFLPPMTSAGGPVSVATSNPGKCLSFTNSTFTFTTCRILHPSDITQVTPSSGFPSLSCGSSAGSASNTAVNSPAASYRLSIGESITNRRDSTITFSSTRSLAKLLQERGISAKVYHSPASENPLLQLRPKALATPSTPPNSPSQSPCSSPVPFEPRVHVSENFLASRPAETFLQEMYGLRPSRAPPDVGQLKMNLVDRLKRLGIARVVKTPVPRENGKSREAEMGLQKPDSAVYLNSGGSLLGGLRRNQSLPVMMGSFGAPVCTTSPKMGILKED

binding (^mycMitofusin1): binds
binding (^mycTRAK2-(1–700)): binds
binding (full-length ^mycTRAK2): binds
B1: Untagged human DISC1 (protein, UniProt Q9NRI5 1-854)
chain: MPGGGPQGAPAAAGGGGVSHRAGSRDCLPPAACFRRRRLARRPGYMRSSTGPGIGFLSPAVGTLFRFPGGVSGEESHHSESRARQCGLDSRGLLVRSPVSKSAAAPTVTSVRGTSAHFGIQLRGGTRLPDRLSWPCGPGSAGWQQEFAAMDSSETLDASWEAACSDGARRVRAAGSLPSAELSSNSCSPGCGPEVPPTPPGSHSAFTSSFSFIRLSLGSAGERGEAEGCPPSREAESHCQSPQEMGAKAASLDGPHEDPRCLSRPFSLLATRVSADLAQAARNSSRPERDMHSLPDMDPGSSSSLDPSLAGCGGDGSSGSGDAHSWDTLLRKWEPVLRDCLLRNRRQMEVISLRLKLQKLQEDAVENDDYDKAETLQQRLEDLEQEKISLHFQLPSRQPALSSFLGHLAAQVQAALRRGATQQASGDDTHTPLRMEPRLLEPTAQDSLHVSITRRDWLLQEKQQLQKEIEALQARMFVLEAKDQQLRREIEEQEQQLQWQGCDLTPLVGQLSLGQLQEVSKALQDTLASAGQIPFHAEPPETIRSLQERIKSLNLSLKEITTKVCMSEKFCSTLRKKVNDIETQLPALLEAKMHAISGNHFWTAKDLTEEIRSLTSEREGLEGLLSKLLVLSSRNVKKLGSVKEDYNRLRREVEHQETAYETSVKENTMKYMETLKNKLCSCKCPLLGKVWEADLEACRLLIQSLQLQEARGSLSVEDERQMDDLEGAAPPIPPRLHSEDKRKTPLKVLEEWKTHLIPSLHCAGGEQKEESYILSAELGEKCEDIGKKLLYLEDQLHTAIHSHDEDLIQSLRRELQMVKETLQAMILQLQPAKEAGEREAAASCMTAGVHEAQA
